Reference: PubChem BioAssay (Tox21)
The inconclusive results got no clear call from the source; some entries with a clear call stand among them for comparison. For some of these results: Potencies beside an inconclusive call are fits to weak or partial responses and may not hold up. Calls of active or inactive are those of the source. Unless noted, the call rests on the fitted dose curve; in most records, active means well fitted curve in the direction sought with a large enough effect in the repeat runs; inconclusive means weak or mixed curves; inactive means no such curve, though single readings can be large; an effect the other way counts as inactive or inconclusive.

Legend:
[1] = qHTS assay for small molecule agonists of the antioxidant response element (ARE) signaling pathway (AID 743202; active means well fitted activation curve with a large enough effect in the signal ratio in the repeat runs, not every such curve was filed as active; inconclusive means weak or mixed curves, or effect the other way; inactive means no such curve, though single readings can be large or run the other way; the % refers to the signal ratio; further: potency means the concentration at half of the fitted maximal effect); details: HepG2 ARE-bla reporter, beta-lactamase FRET, 16 h; activation: at 73.3 µM (top of the series) unless noted
Summary of the method: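 Steps: seed ARE-bla HepG2 cells (2,000/well); incubate 5 h at 37 C; add compounds by pin tool; incubate 16 h at 37 C; add FRET substrate; read fluorescence after 2 h at RT.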

[2] = qHTS assay for small molecule agonists of the antioxidant response element (ARE) signaling pathway - cell viability counter screen (AID 743203; calls by dose curve; further: potency means the concentration at half of the fitted maximal effect; nearly all actives have a fitted effect of over 55% in size); details: ARE-bla HepG2 viability, CellTiter-Glo luminescence, 16 h; viability change, negative = cytotoxic: at 73.3 µM (top of the series)
Summary of the method: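 Cytotoxicity was tested in parallel with the ARE reporter screen. ARE-bla HepG2 cells were exposed to compounds for 16 hrs, and viability was taken from CellTiter-Glo luminescence.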

[3] = biological target: Peroxisome proliferator-activated receptor delta (Homo sapiens) (UniProt Q03181); assay: qHTS assay to identify small molecule agonists of the peroxisome proliferator-activated receptor delta (PPARd) signaling pathway (AID 743212; calls by dose curve; further: potency means the concentration at half of the fitted maximal effect); details: HEK293H PPARd-UAS-bla, beta-lactamase FRET ratio, 17 h; activation: at 62.6 µM (top of the series) unless noted
UniProt Q03181, sequence (Q03181 whole entry, looked up): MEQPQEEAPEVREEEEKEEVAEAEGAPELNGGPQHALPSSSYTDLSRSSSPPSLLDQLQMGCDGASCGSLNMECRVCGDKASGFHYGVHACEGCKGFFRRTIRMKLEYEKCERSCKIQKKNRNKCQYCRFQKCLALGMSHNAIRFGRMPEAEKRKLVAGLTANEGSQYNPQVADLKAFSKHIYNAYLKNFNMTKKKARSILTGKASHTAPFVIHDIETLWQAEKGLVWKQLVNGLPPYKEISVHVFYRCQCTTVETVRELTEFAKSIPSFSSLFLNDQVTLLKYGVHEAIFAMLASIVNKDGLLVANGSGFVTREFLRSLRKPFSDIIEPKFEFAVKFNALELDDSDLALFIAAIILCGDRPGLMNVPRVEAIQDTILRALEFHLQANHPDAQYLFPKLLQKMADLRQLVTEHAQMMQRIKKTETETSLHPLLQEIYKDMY
Summary of the method: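 Cells expressing a UAS-driven beta-lactamase reporter (PPARd-bla HEK293H) were given test compounds after a 5 h settle and kept at 37 C. Reporter activity was then measured as FRET fluorescence using LiveBLAzer B/G substrate.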

[4] = qHTS assay to identify small molecule antagonists of the peroxisome proliferator-activated receptor delta (PPARd) signaling pathway - cell viability counter screen (AID 743213); details: PPARd-bla HEK293H viability, CellTiter-Glo luminescence, 17 h; viability change, negative = cytotoxic: at 62 µM (top of the series) unless noted; further: nearly all actives have a fitted effect of over 50% in size; further: potency means the concentration at half of the fitted maximal effect
Summary of the method: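 Agonist-stimulated (L165041, 300 nM final) HEK293H PPARd UAS-bla cells are exposed to compounds for 17 h at 37 C, and ATP-based luminescence (CellTiter-Glo) from the same wells reports cytotoxicity.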

[5] = biological target: Bile acid receptor (Homo sapiens) (UniProt Q96RI1); assay: qHTS assay to identify small molecule antagonists of the farnesoid-X-receptor (FXR) signaling pathway (AID 743217; active means well fitted inhibition curve with a large enough effect in the signal ratio in the repeat runs, not every such curve was filed as active; inconclusive means weak or mixed curves, or effect the other way; inactive means no such curve, though single readings can be large or run the other way; the % refers to the signal ratio; further: on the % scale 0 is the no-effect control and ±100 the full control effect); details: HEK293T FXR-UAS-bla, beta-lactamase ratio, CDCA-stimulated, 16 h; activity change, negative = inhibition: at 62.6 µM (top of the series) unless noted
UniProt Q96RI1, sequence (Q96RI1 whole entry, looked up): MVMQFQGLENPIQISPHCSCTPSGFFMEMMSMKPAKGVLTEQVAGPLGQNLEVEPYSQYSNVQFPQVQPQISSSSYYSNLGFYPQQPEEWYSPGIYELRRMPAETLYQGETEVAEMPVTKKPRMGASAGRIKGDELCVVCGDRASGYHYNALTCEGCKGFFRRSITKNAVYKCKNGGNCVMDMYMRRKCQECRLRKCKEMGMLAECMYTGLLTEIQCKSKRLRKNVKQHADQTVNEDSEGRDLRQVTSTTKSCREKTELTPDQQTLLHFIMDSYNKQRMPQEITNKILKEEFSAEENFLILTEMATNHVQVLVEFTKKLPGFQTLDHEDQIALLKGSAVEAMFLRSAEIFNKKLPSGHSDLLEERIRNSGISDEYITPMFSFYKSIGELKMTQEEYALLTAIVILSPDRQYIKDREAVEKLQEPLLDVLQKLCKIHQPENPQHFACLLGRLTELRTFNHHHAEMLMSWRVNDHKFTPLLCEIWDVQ
Summary of the method: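 Cells carrying a UAS-driven beta-lactamase reporter (GeneBLAzer FXR-UAS-bla HEK 293T) were plated and rested 5 h at 37 °C. Compounds in DMSO were added alongside chenodeoxycholic acid agonist at 50 uM final and left 16 h at 37 °C before FRET substrate readout.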

[6] = qHTS assay to identify small molecule agonists of the farnesoid-X-receptor (FXR) signaling pathway - cell viability counter screen (AID 743218); details: FXR-bla HEK293T viability, CellTiter-Glo luminescence, 16 h; viability change, negative = cytotoxic: at 62.6 µM (top of the series) unless noted; further: potency means the concentration at half of the fitted maximal effect; nearly all actives have a fitted effect of over 45% in size
Summary of the method: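 Cells were seeded, left 5 h at 37 C and 5% CO2, then dosed with compound in DMSO for 16 h. After the beta-lactamase FRET read, CellTiter-Glo was added and luminescence measured 30 min later.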

[7] = biological target: Vitamin D3 receptor (Homo sapiens) (UniProt P11473); assay: qHTS assay to identify small molecule agonists of the vitamin D receptor (VDR) signaling pathway (AID 743222; calls by dose curve; further: on the % scale 0 is the no-effect control and ±100 the full control effect); details: HEK293T VDR-UAS-bla, beta-lactamase FRET ratio, 16 h; activation: at 63.5 µM (top of the series) unless noted
UniProt P11473, sequence (P11473 whole entry, looked up): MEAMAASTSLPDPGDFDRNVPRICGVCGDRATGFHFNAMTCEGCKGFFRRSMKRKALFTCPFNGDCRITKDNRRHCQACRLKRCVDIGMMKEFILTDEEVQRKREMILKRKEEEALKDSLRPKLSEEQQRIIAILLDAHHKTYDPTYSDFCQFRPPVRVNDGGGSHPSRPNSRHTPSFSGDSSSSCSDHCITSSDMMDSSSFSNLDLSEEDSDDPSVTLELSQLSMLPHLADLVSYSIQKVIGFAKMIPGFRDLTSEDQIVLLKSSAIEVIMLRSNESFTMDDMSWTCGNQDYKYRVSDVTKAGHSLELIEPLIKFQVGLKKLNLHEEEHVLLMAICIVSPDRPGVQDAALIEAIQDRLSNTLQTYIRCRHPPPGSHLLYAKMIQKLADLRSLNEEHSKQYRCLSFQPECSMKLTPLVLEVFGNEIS
Summary of the method: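 Cells carrying a VDR-driven beta-lactamase reporter are seeded at 2,000 per well and rested 4 h. Compounds in DMSO are added for 16 h at 37C, and FRET substrate fluorescence is measured after 2 h at room temperature.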

[8] = biological target: Vitamin D3 receptor (Homo sapiens) (UniProt P11473); assay: qHTS assay to identify small molecule antagonists of the vitamin D receptor (VDR) signaling pathway (AID 743223; active means well fitted inhibition curve with a large enough effect in the signal ratio in the repeat runs, not every such curve was filed as active; inconclusive means weak or mixed curves, or effect the other way; inactive means no such curve, though single readings can be large or run the other way; the % refers to the signal ratio; further: potency means the concentration at half of the fitted maximal effect; on activity change, negative = inhibition: on the % scale 0 is the no-effect control and ±100 the full control effect); details: VDR-UAS-bla HEK293T, beta-lactamase FRET ratio, 16 h; activity change, negative = inhibition: at 61 µM (top of the series) unless noted
Summary of the method: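 Agonist 1alpha,25-dihydroxyvitamin D3 (3 nM in well) was added with each compound to VDR-bla cells preincubated 4 h. Cells stood 16 h at 37C, then FRET substrate 2 h at room temperature; fluorescence intensity recorded.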

[9] = qHTS assay to identify small molecule agonists of the vitamin D receptor (VDR) signaling pathway - cell viability counter screen (AID 743224); details: VDR-bla HEK293T viability, CellTiter-Glo luminescence, 16 h; activity change, negative = cytotoxicity: at 62.6 µM (top of the series); further: nearly all actives have a fitted effect of over 50% in size; further: potency means the concentration at half of the fitted maximal effect; on activity change, negative = cytotoxicity: on the % scale 0 is the no-effect control and ±100 the full control effect
Summary of the method: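 Cells: VDR-bla, 2,000/well, settled 4 h. Treatment: compounds in DMSO, 16 h, 37C/5% CO2. Readout: CellTiter-Glo luminescence after 30 min RT.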

[10] = qHTS assay to identify small molecule antagonists of the vitamin D receptor (VDR) signaling pathway - cell viability counter screen (AID 743225); details: VDR-bla HEK293T viability, CellTiter-Glo luminescence, 16 h; viability change, negative = cytotoxic: at 61 µM (top of the series) unless noted; further: potency means the concentration at half of the fitted maximal effect; nearly all actives have a fitted effect of over 50% in size
Summary of the method: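 Luminescent cell viability (CellTiter-Glo) in VDR-bla HEK 293T cells after 16 h compound exposure at 37C in the presence of 3 nM final 1-alpha,25-dihydroxy vitamin D3.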

[11] = biological target: Nuclear receptor ROR-gamma (Homo sapiens) (UniProt P51449); assay: qHTS assay to identify small molecule antagonists of the retinoid-related orphan receptor gamma (ROR-gamma) signaling pathway (AID 1159521; further: nearly all actives have a fitted effect of over 50% in size; further: potency means the concentration at half of the fitted maximal effect)
Summary of the method: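 CHO cells expressing RORγ under a TET-on promoter, luciferase under RORE control. Dox 1 uM final, 16 h; compounds added 2 h prior. Luminescence decrease measured.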

[12] = qHTS assay to identify small molecule agonists of the AP-1 signaling pathway (AID 1159526; calls by dose curve; further: potency means the concentration at half of the fitted maximal effect); details: ME-180 (cervical carcinoma) AP-1-bla reporter, beta-lactamase FRET ratio, 5 h; activation: at 76.8 µM (top of the series) unless noted
[13] = qHTS assay for small molecule activators of the heat shock response signaling pathway (AID 743210; active means well fitted activation curve with a large enough effect in the signal ratio in the repeat runs, with a control signal flat, not every such curve was filed as active; inconclusive means weak or mixed curves; the % refers to the signal ratio; further: potency means the concentration at half of the fitted maximal effect); details: HeLa HSE-bla reporter, beta-lactamase ratio, 5 h; activation: at 62.6 µM (top of the series) unless noted
Summary of the method: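 Activation of heat shock element-controlled beta-lactamase expression is measured in HeLa cells by LiveBLAzer FRET fluorescence, with compound exposure lasting 5 h at 37 C and substrate loading 2.5 h at room temperature.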

[14] = qHTS assay to identify small molecule agonists of the peroxisome proliferator-activated receptor delta (PPARd) signaling pathway - cell viability counter screen (AID 743211); details: PPARd-bla HEK293H viability, CellTiter-Glo luminescence, 17 h; activity change, negative = cytotoxicity: at 62.6 µM (top of the series); further: potency means the concentration at half of the fitted maximal effect; nearly all actives have a fitted effect of over 55% in size
Summary of the method: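 Luminescent ATP viability assay (CellTiter-Glo, 30 min RT) in UAS-bla HEK293H cells carrying the PPAR delta reporter construct, 3000 cells/well, after a 17 h compound treatment at 37 C.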

[15] = biological target: Peroxisome proliferator-activated receptor delta (Homo sapiens) (UniProt Q03181); assay: qHTS assay to identify small molecule antagonists of the peroxisome proliferator-activated receptor delta (PPARd) signaling pathway (AID 743215; active means well fitted inhibition curve with a large enough effect in the signal ratio in the repeat runs, not every such curve was filed as active; inconclusive means weak or mixed curves, or effect the other way; inactive means no such curve, though single readings can be large or run the other way; the % refers to the signal ratio; further: potency means the concentration at half of the fitted maximal effect); details: HEK293H PPARd-UAS-bla, beta-lactamase FRET ratio, antagonist, 17 h; ratio activity, negative = inhibition: at 62 µM (top of the series) unless noted
Summary of the method: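 Cells: HEK293H with a UAS-driven beta-lactamase reporter responsive to PPARd. Compounds were co-added with L165041 (300 nM, final) and incubated 17 h at 37 C before a 2 h room-temperature FRET substrate step and fluorescence reading.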

[16] = qHTS assay to identify small molecule antagonists of the farnesoid-X-receptor (FXR) signaling pathway - cell viability counter screen (AID 743221; active means well fitted cell-killing curve with a large enough effect in the repeat runs, not every such curve was filed as active; inconclusive means weak or mixed curves, or effect the other way; inactive means no such curve, though single readings can be large or run the other way); details: FXR-bla HEK293T viability, CellTiter-Glo luminescence, 16 h; activity change, negative = cytotoxicity: at 62.6 µM (top of the series) unless noted
Summary of the method: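 In GeneBLAzer FXR-UAS-bla HEK 293T cells stimulated with 50 uM chenodeoxycholic acid (final), compounds acted for 16 h at 37 C. Viability was assessed afterwards by CellTiter-Glo luminescence.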

[17] = qHTS assay to identify small molecule agonists of the AP-1 signaling pathway - cell viability counter screen (AID 1159525; calls by dose curve; further: nearly all actives have a fitted effect of over 55% in size)
Summary of the method: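 Each titration point was normalised to DMSO and tetra n-octyl ammonium bromide controls. The read was Cell Titer Glo luminescence after 30 min at RT, following 5 h compound exposure of ME-180 AP-1-bla cells at 37 °C.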

[18] = qHTS assay for small molecule activators of the heat shock response signaling pathway - cell viability counter screen (AID 743209); details: HSE-bla HeLa viability, CellTiter-Glo luminescence, 5 h; activity change, negative = cytotoxicity: at 62.6 µM (top of the series)
Summary of the method: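 Cytotoxicity counter screen run in parallel with the HSE beta-lactamase reporter, using the same wells. HeLa HSE-bla cells received compound for 5 h at 37 C; ATP-based CellTiter-Glo luminescence was measured after 30 min at room temperature.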
Tags describe the fitted curve by direction and shape or compound fluorescence and quenching.

OCc1cc(C(O)CNCCCCCCOCCCCc2ccccc2)ccc1O (centres undefined)
inconclusive: Potency [1] 13.3 µM [falling, partial curve, poor fit] | Potency [2] 29.8 µM [cytotoxic, partial curve] | Potency [3] 33.5 µM [rising, partial curve, poor fit] | Potency [4] 13.3 µM [cytotoxic, full curve] | activity change, negative = inhibition [5] 10.8% | Potency [6] 23.7 µM [cytotoxic, partial curve] | activation [7] -25.4% | activity change, negative = inhibition [8] 2.03% | Potency [10] 26.8 µM [cytotoxic, single point] | Potency [11] 23.7 µM [inhibitor, partial curve, poor fit] | Potency [12] 21.3 µM [falling, partial curve, poor fit]
inactive: Potency [9]

S=C([S-])NCCNC(=S)[S-].[Mn+2]
active: Potency [1] 6.86 µM
inactive: Potency [4] | Potency [12]
inconclusive: activation [13] 3.33% | Potency [14] 61.6 µM [cytotoxic, partial curve, poor fit] | Potency [6] 1.55 µM [rising, full curve] | activity change, negative = inhibition [8] -17.3% | Potency [11] 68.6 µM [inhibitor, partial curve, poor fit]

Nc1ccc(Cl)c([N+](=O)[O-])c1
inconclusive: Potency [12] 17.4 µM [activator, full curve]
active: Potency [11] 38.6 µM

CNCCCCOc1ccccc1Cc1ccccc1
inconclusive: Potency [1] 11.9 µM [falling, full curve] | activation [3] -8.61% | Potency [15] 33.5 µM [rising, single point] | activity change, negative = inhibition [5] -39.1% | Potency [16] 18.8 µM [falling, partial curve] | activity change, negative = inhibition [8] -32.4% | Potency [9] 21.1 µM [cytotoxic, partial curve] | Potency [10] 19 µM [cytotoxic, partial curve] | Potency [11] 18.8 µM [inhibitor, partial curve, poor fit] | Potency [12] 5.35 µM [activator, full curve, poor fit]
active: Potency [14] 26.6 µM | Potency [4] 13.3 µM

Cn1cccc1
inactive: Potency [11] | Potency [12]

OCCSc1ccccc1
inactive: Potency [9] | Potency [17]
inconclusive: Potency [11] 68.6 µM [inhibitor]

N#C/C(=C1/SC[C@@H](c2ccc(Cl)cc2Cl)S1)n1ccnc1
inactive: Potency [13] | Potency [12]
inconclusive: Potency [1] 33.5 µM [single point] | Potency [2] 33.5 µM [cytotoxic] | activation [3] -15.3% | Potency [15] 13.3 µM [rising, partial curve, poor fit] | activation [7] -28.4% | activity change, negative = inhibition [8] 1.57% | Potency [9] 23.7 µM [cytotoxic, partial curve] | Potency [10] 26.8 µM [cytotoxic] | Potency [11] 33.5 µM [inhibitor, single point]

O=[N+]([O-])c1cc[n+]([O-])cc1
inconclusive: Potency [1] 30.6 µM [falling, partial curve] | Potency [18] 61.6 µM [cytotoxic, partial curve, poor fit] | Potency [8] 54.9 µM [inhibitor] | Potency [9] 38.9 µM [cytotoxic, partial curve] | Potency [12] 43.6 µM
active: Potency [2] 30.6 µM | Potency [11] 9.69 µM

c1ccc(C(O[C@H]2CCCN(CCc3ccc4c(c3)OCO4)C2)c2ccccc2)cc1
inconclusive: Potency [1] 23.7 µM [rising, partial curve, poor fit] | Potency [2] 18.8 µM [cytotoxic, partial curve, poor fit] | Potency [13] 29.8 µM [falling, partial curve] | Potency [14] 33.5 µM [cytotoxic, partial curve, poor fit] | Potency [4] 7.5 µM [cytotoxic, single point] | Potency [11] 33.5 µM [inhibitor, single point] | Potency [12] 10.7 µM [falling, partial curve, poor fit]
